The record followed here is the supplement of paper PMC10724272.

MIC of invasive clinical C. tropicalis isolates, CLSI broth microdilution (fluconazole 0.12-256 mg/L, up to 1,024 for the azole-resistant cluster and its neighbour group; other ranges not stated); higher = less susceptible. Call: susceptible or wild type [S] / resistant or non-wild type [R] by CLSI breakpoints or cut-offs; intermediate and dose-dependent carry no call. '<=' and '>=' at the end values are inferred; the source marks only some of them. Isolates are numbered anew.

Holding throughout (test): CLSI broth microdilution.
In general terms: Dilution methods test growth across graded concentrations, often in twofold steps.

Compound in experiment [1]: C[C@@H](c1ncncc1F)[C@](O)(Cn1cncn1)c1ccc(F)cc1F [voriconazole]
Compound in experiment [2]: Nc1[nH]c(=O)ncc1F [flucytosine]
Compound in experiment [3]: CCC(C)n1ncn(-c2ccc(N3CCN(c4ccc(OCC5COC(Cn6cncn6)(c6ccc(Cl)cc6Cl)O5)cc4)CC3)cc2)c1=O [itraconazole]
Compound in experiment [4]: CCCCCOc1ccc(-c2cc(-c3ccc(C(=O)N[C@H]4C[C@@H](O)[C@@H](O)NC(=O)[C@@H]5[C@@H](O)[C@@H](C)CN5C(=O)[C@H]([C@H](O)CC(N)=O)NC(=O)[C@H]([C@H](O)[C@@H](O)c5ccc(O)c(OS(=O)(=O)O)c5)NC(=O)[C@@H]5C[C@@H](O)CN5C(=O)[C@H]([C@@H](C)O)NC4=O)cc3)no2)cc1 [micafungin]
Compound in experiment [5]: OC(Cn1cncn1)(Cn1cncn1)c1ccc(F)cc1F [fluconazole]
Compound in experiment [6]: CCCCCOc1ccc(-c2ccc(-c3ccc(C(=O)N[C@H]4C[C@@H](O)[C@@H](O)NC(=O)[C@@H]5[C@@H](O)[C@@H](C)CN5C(=O)[C@H]([C@@H](C)O)NC(=O)[C@H]([C@H](O)[C@@H](O)c5ccc(O)cc5)NC(=O)[C@@H]5C[C@@H](O)CN5C(=O)[C@H]([C@@H](C)O)NC4=O)cc3)cc2)cc1 [anidulafungin]
Compound in experiment [7]: CC[C@H](C)C[C@H](C)CCCCCCCCC(=O)N[C@H]1C[C@@H](O)[C@@H](NCCN)NC(=O)[C@@H]2[C@@H](O)CCN2C(=O)[C@H]([C@H](O)CCN)NC(=O)[C@H]([C@H](O)[C@@H](O)c2ccc(O)cc2)NC(=O)[C@@H]2C[C@@H](O)CN2C(=O)[C@H]([C@@H](C)O)NC1=O [caspofungin]
Compound in experiment [8]: C[C@@H]1[C@H](O)[C@@H](C)/C=C/C=C/C=C/C=C/C=C/C=C/C=C/[C@H](O[C@@H]2O[C@H](C)[C@@H](O)[C@H](N)[C@@H]2O)C[C@@H]2O[C@](O)(C[C@@H](O)C[C@@H](O)[C@H](O)CC[C@@H](O)C[C@@H](O)CC(=O)O[C@H]1C)C[C@H](O)[C@H]2C(=O)O [amphotericin B]
Compound in experiment [9]: CC[C@@H]([C@H](C)O)n1ncn(-c2ccc(N3CCN(c4ccc(OC[C@@H]5CO[C@@](Cn6cncn6)(c6ccc(F)cc6F)C5)cc4)CC3)cc2)c1=O [posaconazole]

One may read the MIC as the lowest concentration found to suppress growth. On to “Candida tropicalis isolate 264 (ERG11 copies: 2, Erg11p: no key change)”, for which the MIC in experiment [1] is 0.12 mg/L [S]; in experiment [2], ≤ 0.06 mg/L [S]; in [3] it was 0.12 mg/L [S]; in experiment [4], 0.03 mg/L [S]; in experiment [5], 1 mg/L [S]; in experiment [6], 0.03 mg/L [S]. For the same test system, the values for the minimal inhibitory concentration (MIC) in [7], in [8] and in experiment [9] were 0.03 mg/L [S], 1 mg/L [S] and 0.12 mg/L [S], respectively.

With “Candida tropicalis isolate 240 (ERG11 copies: 2, Erg11p: no key change)”, the MIC in experiment [1] is 0.12 mg/L [S]; in [2] it was ≤ 0.06 mg/L [S]; in [3], 0.25 mg/L [S]; in experiment [4], 0.03 mg/L [S]; in experiment [5], 2 mg/L [S]; in experiment [6], ≤ 0.015 mg/L [S]. In addition, the MIC worked out at 0.03 mg/L [S] in [7], 0.5 mg/L [S] in [8] and 0.25 mg/L [S] in [9].

As to “Candida tropicalis isolate 253 (ERG11 copies: 2, Erg11p: no key change)”, the minimal inhibitory concentration (MIC) in experiment [1] is ≥ 8 mg/L [R]; in experiment [2] it was 0.25 mg/L [S]; in experiment [3], ≥ 16 mg/L [R]; in [4], 0.06 mg/L [S]; in experiment [5], 256 mg/L [R]; in experiment [6], 0.25 mg/L [S]. For the same test system, the figures for the MIC in experiment [7], in [8] and in [9] were 0.25 mg/L [S], 1 mg/L [S] and ≥ 8 mg/L [R], respectively.

For “Candida tropicalis isolate 329 (ERG11 copies: 2, Erg11p: no key change)”, the MIC is ≥ 8 mg/L [R] in experiment [1]; ≤ 0.06 mg/L [S] in experiment [2]; 0.5 mg/L [S] in experiment [3]; 0.06 mg/L [S] in experiment [4]; 256 mg/L [R] in experiment [5]; 0.12 mg/L [S] in experiment [6]. Also, the MIC in experiment [7] is 0.25 mg/L [S]; in experiment [8], 0.5 mg/L [S]; in [9] it was 0.5 mg/L [R].

As to “Candida tropicalis isolate 107 (ERG11 copies: 7, Erg11p: Y132F, S154F (heterozygous))”, the MIC in [1] was ≥ 8 mg/L [R]; in experiment [2], ≤ 0.06 mg/L [S]; in [3] it was 0.25 mg/L [S]; in [4], 0.03 mg/L [S]; in experiment [5] it was 512 mg/L [R]; in experiment [6], 0.03 mg/L [S]. Further, the figures for the MIC in [7], in experiment [8] and in experiment [9] were 0.03 mg/L [S], 1 mg/L [S] and 0.5 mg/L [R], respectively.

With “Candida tropicalis isolate 319 (ERG11 copies: 2, Erg11p: no key change)”, the minimal inhibitory concentration (MIC) was 0.06 mg/L [S] in [1]; ≤ 0.06 mg/L [S] in experiment [2]; 0.25 mg/L [S] in experiment [3]; 0.06 mg/L [S] in experiment [4]; 1 mg/L [S] in [5]; 0.03 mg/L [S] in experiment [6]. Further, the MIC was found to be 0.03 mg/L [S] in experiment [7], 1 mg/L [S] in experiment [8] and 0.25 mg/L [S] in experiment [9].

For “Candida tropicalis isolate 56 (ERG11 copies: 2, Erg11p: Y132F, S154F (heterozygous))”, the minimum inhibitory concentration (MIC) is ≥ 8 mg/L [R] in experiment [1]; ≤ 0.06 mg/L [S] in [2]; 1 mg/L [R] in [3]; 0.03 mg/L [S] in experiment [4]; > 256 mg/L [R] in [5]; 0.12 mg/L [S] in [6]. Besides, the minimal inhibitory concentration (MIC) in experiment [7] was 0.06 mg/L [S]; in experiment [8], 0.5 mg/L [S]; in experiment [9] it was 1 mg/L [R].

For the test system “Candida tropicalis isolate 147 (ERG11 copies: 2, Erg11p: no key change)”, the MIC in [1] came to 0.12 mg/L [S]; in experiment [2], 0.12 mg/L [S]; in experiment [3], 0.25 mg/L [S]; in experiment [4] it was 0.03 mg/L [S]; in experiment [5] it was 2 mg/L [S]; in experiment [6], 0.06 mg/L [S]. Moreover, the MIC was 0.03 mg/L [S] in [7], 1 mg/L [S] in experiment [8] and 0.25 mg/L [S] in experiment [9].

In the case of “Candida tropicalis isolate 230 (ERG11 copies: 2, Erg11p: no key change)”, the MIC is 0.03 mg/L [S] in [1]; ≤ 0.06 mg/L [S] in [2]; 0.06 mg/L [S] in experiment [3]; 0.03 mg/L [S] in [4]; 0.5 mg/L [S] in [5]; ≤ 0.015 mg/L [S] in [6]. The values for the minimum inhibitory concentration (MIC) in experiment [7], in experiment [8] and in [9] were 0.015 mg/L [S], 0.5 mg/L [S] and 0.06 mg/L [S], respectively.
